# Assay results published in PubChem BioAssay AID1476 (National Center for Advancing Translational Sciences (NCATS), 2009).
# Where “and” joins values, the source holds several entries; their conditions need not be identical. Identical values can stand only once. Out of some 200,000 compounds screened, about 4,500 (2.2%) were called active. Inconclusive means that the source gave no clear call. Such entries were picked first, then a sample of the others. The call rests on the fitted dose curve; in most records, active means well fitted inhibition curve with a large enough effect; inconclusive means small, poorly fitted or top-dose-only effect, or effect the other way; inactive means flat fitted curve, though single readings scatter. Potencies beside an inconclusive call are fits to weak or partial responses and may not hold up.
# Target: Cruzipain (Trypanosoma cruzi) (UniProt P25779)
# UniProt P25779, sequence (P25779 whole entry, looked up): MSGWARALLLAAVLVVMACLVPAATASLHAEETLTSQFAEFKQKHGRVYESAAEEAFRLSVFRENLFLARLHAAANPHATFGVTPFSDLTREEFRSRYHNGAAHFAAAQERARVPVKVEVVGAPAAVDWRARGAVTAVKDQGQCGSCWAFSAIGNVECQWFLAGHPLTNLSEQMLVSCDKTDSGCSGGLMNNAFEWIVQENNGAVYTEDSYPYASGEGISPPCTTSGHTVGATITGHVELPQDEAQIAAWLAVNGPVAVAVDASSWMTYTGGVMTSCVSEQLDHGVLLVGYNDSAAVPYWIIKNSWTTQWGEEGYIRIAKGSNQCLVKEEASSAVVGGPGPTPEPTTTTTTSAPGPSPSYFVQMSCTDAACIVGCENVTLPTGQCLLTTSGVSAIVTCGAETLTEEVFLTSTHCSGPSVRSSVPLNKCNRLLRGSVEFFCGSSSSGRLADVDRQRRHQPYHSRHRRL
# Test: qHTS Assay for Promiscuous and Specific Inhibitors of Cruzain (without detergent); further: nearly all actives have a fitted effect of over 40% in size;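 on max response, negative = inhibition: plate controls were enzyme without inhibitor for no effect and buffer without enzyme for full effect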
# Details: purified cruzain, Z-FR-AMC fluorescence, no detergent
# Method in brief: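 Detergent-free condition (0.00005% Triton X-100) in acetate buffer pH 5.5 with DTT. 1.5 nM enzyme and compound were pre-mixed 15 min, then 2 uM Z-FR-AMC substrate added; reaction progress from fluorescence change between first and third reads (60 s).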
# Potency means the concentration at half of the fitted maximal effect; tags describe the fitted curve by direction and shape.
Compound,Potency,"max response, negative = inhibition"
COc1ccc2c(c1)CCC(C)N2S(=O)(=O)c1ccc(C2CNC(=O)C2)cc1 (centres undefined),"inconclusive: 31.6 µM [activator, single point]",
COC(=O)c1nc2n(n1)C(c1cc(OC)ccc1OC)C(C(=O)OC1CCCCC1)=C(C)N2 (centres undefined),"inconclusive: 31.6 µM [activator, single point]",
COc1cc(/C=N/NC(N)=S)ccc1OCC(=O)Nc1ccc(C)cc1,"inconclusive: 0.631 µM [inhibitor, full curve]",
Cc1cc(NC(=O)CSc2ncnc3sc4c(c23)CCC(C)C4)no1 (centres undefined),active: 5.01 µM,
CC(=O)c1cn(CC(=O)NCc2ccc3c(c2)OCO3)c2ccccc12,"inconclusive: 39.8 µM [inhibitor, single point]",
COC(=O)Nc1ccc2c(c1)OCO2,"inconclusive: 15.8 µM [inhibitor, partial curve]",
Cc1ccc(C)c(NC(=O)CN2C(=O)COc3ccc(Cl)cc32)c1,,inactive: 17%
NC(N)=NS(=O)(=O)c1ccc(NC(=S)NC(=O)/C=C/c2ccco2)cc1,"inconclusive: 31.6 µM [inhibitor, single point]",
O=C(N/N=C/c1c(O)n(-c2ccccc2Cl)c(=O)c2ccccc12)C1COc2ccccc2O1 (centres undefined),,inactive: 12.4%
CCc1ccc(CN2CCc3nc(Nc4ccccc4)ncc3C2)cc1,"inconclusive: 39.8 µM [inhibitor, single point]",
CN(C)/C=N/c1c(C#N)cnn1-c1ncnc2sc(-c3ccccc3)cc12,"inconclusive: 31.6 µM [activator, single point]",
CCOC(=O)CCCSc1nc(-c2ccc3c(c2)OCO3)cc(C(F)(F)F)c1C#N,active: 25.1 µM,
COc1cc(-c2nc(-c3ccccc3)c(-c3cccs3)[nH]2)cc(OC)c1OC,"inconclusive: 31.6 µM [activator, single point]",
CC(C)Cc1nc2sc3c(=O)[nH]cnc3c2c2c1CCC2,"inconclusive: 31.6 µM [inhibitor, single point]",
Cc1ccc(NC(=O)C(=O)NCC(c2cccnc2)N2CCN(c3ccccc3F)CC2)cc1Cl (centres undefined),"inconclusive: 39.8 µM [activator, single point]",
CCc1ccccc1Nc1nn2c(=O)c3ccc(C(=O)NC(C)c4ccccc4)cc3nc2s1 (centres undefined),"inconclusive: 12.6 µM [inhibitor, partial curve]",
CC(=O)OC1C[C@@]2(C)C(c3ccoc3)C[C@H]3O[C@@]32[C@@]2(C)C(=O)C(O)=C3C(C)(C)C(=O)C=C[C@]3(C)C12 (some centres undefined),"inconclusive: 25.1 µM [activator, single point]",
COc1ccccc1NC(=O)c1sc2nc(C)c(C(=O)Nc3ccc(C)cc3C)c(-c3cccs3)c2c1N,"inconclusive: 39.8 µM [inhibitor, single point]",
COCCCNC(=O)c1c(N)n(/N=C/c2cccs2)c2nc3ccccc3nc12,"inconclusive: 25.1 µM [activator, partial curve]",
COC(=O)C1=C(C)N(c2cccc3ccccc23)C(=O)C1,,inactive: -12.4%
COc1ccc(NC(=O)CCC2CCCC2)cc1OC,,inactive: 2.06%
O=C(O)CCn1c(=O)c2cccn2c2cccnc21,,inactive: -4.74%

Compound,Potency,"max response, negative = inhibition"
COc1ccc(-c2cc(=O)c3ccc(O)cc3o2)cc1,"inconclusive: 39.8 µM [inhibitor, single point]",
c1ccc(Cc2nnc3sc(-c4ccc5c(c4)OCCO5)nn23)cc1,"inconclusive: 25.1 µM [inhibitor, single point]",
O=C(Nc1cc(C(F)(F)F)ccc1N1CCOCC1)c1n[nH]c(=O)c2ccccc12,"inconclusive: 25.1 µM [activator, partial curve]",
COCCNc1ccc(-c2nc(-c3ccco3)no2)cc1[N+](=O)[O-],active: 3.16 µM,
Cc1nc(N)sc1N=Nc1ccc(F)cc1,"inconclusive: 39.8 µM [inhibitor, single point]",
CCOC(=O)CCCNC(=O)COC(=O)[C@@H]1CCCN1S(=O)(=O)c1ccc(Cl)cc1,"inconclusive: 31.6 µM [activator, single point]",
COc1cc(C(=S)N2CCOCC2)cc(OC)c1OC(=O)c1cc([N+](=O)[O-])cc([N+](=O)[O-])c1,"inconclusive: 39.8 µM [activator, single point]",
COCCCNC(=O)c1cc2c(-c3ccc(Cl)cc3)nn(C)c2s1,"inconclusive: 39.8 µM [activator, single point]",
O=C(CN1C(=O)COc2ccc(S(=O)(=O)N3CCCC3)cc21)N1CCN(c2ccc(F)cc2)CC1,"inconclusive: 31.6 µM [activator, single point]",
CCOC(=O)c1ccc(NC(=O)CCC(=O)N2Cc3ccccc3Oc3ncccc32)cc1,,inactive: 0.698%
CCC(=O)N1CCN(c2ccc(NC(=O)c3cc4ccccc4o3)cc2Cl)CC1,"inconclusive: 39.8 µM [activator, single point]",
CCOC(=O)c1cc(C)n(CC2CCC(C(=O)Nc3cccc(C)c3)CC2)c1C (centres undefined),,inactive: -2.1%
CCOc1ccc(-c2nc(SCC(=O)c3ccccc3)n[nH]2)cc1,"inconclusive: 25.1 µM [inhibitor, single point]",
Cn1nc(-c2ccccc2F)c2cc(C(=O)NCCc3ccc(Cl)cc3)sc21,"inconclusive: 39.8 µM [inhibitor, single point]",
O=C(c1ccc(Br)cc1)N1CCN(CCc2ccncc2)CC1,,inactive: -1.26%
CCOC(=O)C1CCN(C(c2cccc(F)c2)c2c(O)cc(C)n(Cc3ccco3)c2=O)CC1 (centres undefined),"inconclusive: 39.8 µM [inhibitor, single point]",
CCn1cc(Cl)c(C(=O)N2N=C(c3ccc4ccccc4c3)CC2c2ccccc2O)n1 (centres undefined),"inconclusive: 10 µM [activator, partial curve]",
Cc1n[nH]c(C)c1C(=O)CC1(O)C(=O)N(CCc2ccccc2)c2ccc(Cl)cc21 (centres undefined),"inconclusive: 39.8 µM [activator, single point]",
Cc1ccc(S(=O)(=O)N2CCOCC2)cc1C(=O)NC(=S)N(Cc1ccccc1)C(C)C,"inconclusive: 39.8 µM [activator, single point]",
CC1CCC2(C(=O)O)CCC3(C)C(=CCC4C3(C)CCC3[C@@]4(C)CC(O)C(O)[C@@]3(C)CO)C2C1C (some centres undefined),"inconclusive: 31.6 µM [activator, single point]",
CCCn1c(-c2ccc(F)cc2)nc2c(N3CCN(CCn4ccnc4)CC3)nc(C)nc21,,inactive: 1.74%
CC(=O)NC1CC(=O)N(c2ccc3c(c2)OCCO3)C1 (centres undefined),,inactive: 6.6%

Compound,Potency,"max response, negative = inhibition"
CCC(=O)N1CCc2cc(Br)cc(S(=O)(=O)N3CCC(C(=O)Nc4ccccc4CC)CC3)c21,"inconclusive: 3.98 µM [activator, full curve]",
Cc1cccc(Oc2coc3cc(OC(=O)c4cc5ccccc5oc4=O)ccc3c2=O)c1,active: 5.01 µM,
NC(=S)Nc1nc2ccccc2[nH]c1=O,"inconclusive: 3.16 µM [inhibitor, full curve]",
Cc1ccccc1-c1cc(NCc2ccccc2)ncn1,,inactive: 12.8%
CCOCC(=O)Nc1c(C(=O)Nc2ccc(OC)cc2OC)oc2ccccc12,"inconclusive: 39.8 µM [activator, single point]",
CCCOc1ccc(/C=N/Nc2ccccc2[N+](=O)[O-])c(O)c1,active: 10 µM,
CCCCN1C(=O)c2[nH]nc(-c3ccccc3O)c2C1c1ccc(C(C)(C)C)cc1 (centres undefined),"inconclusive: 31.6 µM [inhibitor, single point]",
CCn1cc(C(=O)NCc2ccccc2OC)c(=O)c2cc(S(=O)(=O)N(C)C)ccc21,"inconclusive: 31.6 µM [activator, single point]",
Cc1[nH]c2ccccc2c1C(=O)COC(=O)Cn1c(C(F)(F)F)nc2ccccc21,"inconclusive: 39.8 µM [activator, single point]",
COc1ccccc1Nc1sc(C(=O)c2ccc3c(c2)OCO3)c(N)c1S(=O)(=O)c1ccccc1,active: 7.94 µM,
CC(C)Oc1ccc2c(=O)c3cc(C(=O)O)ccc3oc2c1,,inactive: 3.2%
CC(=O)Oc1oc(-c2ccccc2)nc1C=Nc1ccccc1,active: 25.1 µM,
CCc1c(C)sc(NC(=O)CSc2nc3c(c(C(F)(F)F)n2)CCc2ccccc2-3)c1C#N,active: 3.98 µM,
CCOC(=O)c1c(C)n(S(=O)(=O)c2ccc(C)cc2C)c2ccc(NS(=O)(=O)c3ccc(C)cc3C)cc12,active: 1.58 µM,
O=C1c2cccc(OCC(=O)N3CCCc4ccccc43)c2CCN1Cc1ccc(Br)cc1,"inconclusive: 31.6 µM [inhibitor, single point]",
N#C/C(=C/c1ccc(Sc2nc3ccccc3[nH]2)o1)c1cccc(Br)c1,"inconclusive: 39.8 µM [inhibitor, single point]",
COC(=O)[C@@]1(Cc2ccc(OC)cc2)[C@H]2c3cc(C(=O)N4CCCC4)n(Cc4ccc(OC)c(OC)c4)c3C[C@H]2CN1C(=O)c1ccccc1,"inconclusive: 25.1 µM [activator, single point] and inconclusive: 10 µM [activator, partial curve]",
COn1c2c(c3c4nonc4ccc31)CCCC2,,inactive: -3.21%
CCc1nn(CCCC(=O)N2CCN(c3cc(Cl)ccc3C)CC2)c(=O)c2cc3occc3n12,"inconclusive: 39.8 µM [activator, single point]",
Oc1c(C=C2N=c3ccccc3=N2)sc(=S)n1-c1ccc(F)cc1,active: 20 µM,
